# In the supplement of paper PMC10338343:
# ± gives the standard deviation. Only a part is listed here, and it is no random draw.
# System: MIWI (PIWIL1) piRISC loaded with L1MC piRNA (30 nt)
# Experiment: pre-steady-state target cleavage rate (min^-1); MIWI and MILI are mouse PIWI proteins and EfPiwi is from a freshwater sponge; tags in brackets are library labels; higher = faster piRNA-guided slicing of the target
# Settings: guide: L1MC piRNA 5'p-UAACUAAAUACUAUGCAAGCUGUAGGUCCU; auxiliary factor: none (no GTSF1)
# In short: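 The pre-steady-state cleavage rate was derived from a burst-and-steady-state fit of Cleave-'n-Seq data. For these assays, 1 nM active affinity-purified piRISC loaded with a single synthetic guide was mixed with […] a transcribed, DNA-blocked target RNA library in HEPES–potassium acetate buffer at 33 °C, with or without 500 nM GTSF1 partner protein, for 0–8 or 0–960 min. Sequencing counts of uncleaved targets were normalised to depth and to weakly complementary targets, and k3 was capped at 0.0001 min^-1 after three trials were pooled.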
# 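Also: 1 nM active piRISC with 0.1 nM target library at 33 °C single turnover.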
row,Sequence,pre-steady-state target cleavage rate
1,UCGACCUACGAGCUUGCAUAGUAUUUAGUUA,0.0529 ± 0.011
2,UGGACCUACAGCUUGCAUAGAUUUUAGUUA,0.0063 ± 0.0022
3,UCCAGCUACAGCUUGCAUAGUAAUUAGUUA,0.0163 ± 0.0027
4,UCCUGGAACACGUUGCAUAGUAUUUAGUUA,0.00608 ± 0.002
5,UCCACCUAGUGCUUGCAUAGUAUUUAGUUA,0.0239 ± 0.0033
6,UCCUGGUACGCUUGCAUAGUAUUUAGUUA,0.0327 ± 0.0065
7,UCCACCUACAGCUUGCAUAGUAUUUAGUAUA,0.0157 ± 0.005
8,UCCUGGAUGAGCUUGCAUAGUCUUUAGUUA,0.0359 ± 0.0096
9,UCGAGCUACAGCUUCCAUAGUAUUUAGUUA,0.00301 ± 0.0022
10,UGGACCUACAGCUAGCAUAGAAUUUAGUUA,0.00986 ± 0.0039
11,UCGACCUACAGGCUUGCAUAGUAUUUAGUUA,0.07 ± 0.011
12,UCGACCUACUAGCUUGCAUAGUAUUUAGUUA,0.0512 ± 0.01
13,UCCUGCUACAGCUUGCAUGGUAUUUAGUUA,0.0413 ± 0.0095
14,UCCUCCUACUGCUUGCAUAGUAUUUAGAAA,0.00501 ± 0.0016
15,UCCUGGUACAGCUUGGAUAGUAUUUUGUUA,0.0236 ± 0.0073
16,UCCUGGAACAGCUUGCAUAGAUUUUAGUUA,0.00602 ± 0.0031
17,UCCUGGAACAGCUAGCAUACUAUUUAGUUA,0.0108 ± 0.0032
18,AGGACCUACAGCUUGCUAGUAUUUAGUUA,0.00501 ± 0.0024
19,UGGACCUACAGCUUGCAUAGUAUUAACUUA,0.00947 ± 0.0029
20,UCGACACUACAGCUUGCAUAGUAUUUAGUUA,0.0557 ± 0.0088

row,Sequence,pre-steady-state target cleavage rate
1,UCCUGCUACAGCUUAGCAUAGUAUUUAGUUA,0.00739 ± 0.0022
2,UCCACCUACAGCUUGCAUAGUAUUUAGAUA,0.0222 ± 0.0082
3,UGGACCUACAGCUUGCAUAGUAAUUAGAUA,0.00678 ± 0.0022
4,UGGACCUUCAGCUAGCAUAGUAUUUAGUUA,0.0323 ± 0.0066
5,AGGACCUACAGCUUGCAUAGAUUUUAGUAA,0.00448 ± 0.0025
6,AGGACGUACAGCUUGCAAAGUAUUUAGUUA,0.0396 ± 0.0083
7,UCCUGGAUCAGCAUGCAUAGUAUUUAGUUA,0.0154 ± 0.004
8,UCCUGCUACAGGUUGCAUAGUUUUUAGUUA,0.0309 ± 0.008
9,UCCUGGAUCAUGCUUGCAUAGUAUUUAGUUA,0.0609 ± 0.014
10,UGGACCUACAGCUUGCUUAGUUUUUAGUUA,0.0135 ± 0.0031
11,UCCACCAACAGCUUGCAUAGUAUUUAGAUA,0.022 ± 0.0053
12,AGGACCUACAGCUUGCAUAGUAUUUAGUUC [g2:g30:cont:t1C],0.0568 ± 0.01
13,UCGACGUACAGCUUGCAUAGUUUUUAGUUA,0.0269 ± 0.0059
14,UCCUGCUACAGCUUGCAUAGUAUUUAGUUU [g2:g25:cont:t1U],0.0784 ± 0.018
15,UCCUGGAUCAGCUUGCUUAGUAUUAAGUUA,0.00894 ± 0.0036
16,AGGACCUACAGCUUGCAUUGUUUUUAGUUA,0.011 ± 0.0021
17,UCGACCUACAGCAUUGCAUAGUAUUUAGUUA,0.0581 ± 0.012
18,UCCUGCUACAGCUAGCAUUGUAUUUAGUUA,0.0073 ± 0.0027
19,UCCUGGAACAGCUUGCAUAGUAUUUCAGUUA,0.00987 ± 0.0022
20,UCGACCUACAGGUAGCAUAGUAUUUAGUUA,0.00559 ± 0.002
